Source: the RNAGym collection of RNA variant scans (doi:10.1093/nar/gkz1192)
Read counts are not given, so values of variants with three or more changes are uncertain.

B1: CPEB3 Ribozyme (parent)
chain: UAACAGGGGGCCACAGCAGAAGCGUUCACGUCGCAGCCCCUGUCAGAUUCUGGUGAAUCUGCGAAUUCUGCUGUAUAUCUC

Variants of: B1
Experiment: self-cleavage, relative activity (ratio to wild type); higher = more cleavage; in vitro, sequencing
Procedure, shortened: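 Libraries of CPEB3 self-cleaving ribozyme mutants came from rounds of error-prone PCR and carried barcodes, which DNA sequencing matched to variants. In vitro transcription used T7 RNA polymerase at 37°C for 5 hours, with a further 15 min in DNase I before EDTA stopped the reaction; the ribozymes cleaved during both steps. The RNA was reverse transcribed with template switching and sequenced on Illumina. Relative activity is the cleaved/total read fraction of a variant divided by that of the unmutated ribozyme, averaged over three batches with at least 5 reads.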
In the case of AAACAGGGGGCCACAGCUGAAGCGUUCACGUCGCAGCCCCUGUCAGAUGCUGGUGAAUCUGCGAAUUCUGCUGUAUAUCUC [U1A A18U U49G], the self-cleavage is reported as 0.16.
Variant AAACAGGGGGCCACAGCAGUAGCGUUCACGUCGCAGCCCCUGUCAGGUUCUGGUGAAUCUGCGGAUUCUGCUGUGUAUCUC [U1A A20U A47G A64G A75G] has a self-cleavage of 0.16.
Variant AAACAGGGGGCCACAGCAGAAGCGUUCACGUCGCUGCCCCUGUCAGAUUCUGGCGAAUCUGCGAAUUCUGCUGUAUAUAUC [U1A A35U U54C C79A] has a self-cleavage of 0.51.
Work on AAACAGGGGGCCACAGCGGAAGCGUUCACGUCGCAGCCCCUGUCAGAUUCUGGCGAAUCUGCGAAUUCUGCUGUAUAUCUC [U1A A18G U54C] yielded a self-cleavage of 0.77.
For AAACAGGGGGCCACUGCAGAAGCGUACACGUCGCAGCCCCUGUCAGAUUCUGGUGAAUCUGCGAAUUCUGCAAUAUAUCUC [U1A A15U U26A U72A G73A], the self-cleavage was 1.14.
AAACAGGGGGCCACAGCAGAAGCGUUCACGUCGCUGCCCCUGUCAGAUUCUGGUGAAUCUGCGACUUCUGCUGUAUAUCUC [U1A A35U A65C] showed a self-cleavage of 0.12.
Variant AAACAGGGGGCCACAGCGGAAGCGUUCAAGUCGCAGCCCCUGUCAGAUUCUGGUGAAUCUGCGAAUUCUGCUGUAUAUCUC [U1A A18G C29A] has a self-cleavage of 0.31.
Variant AAACAGGGGGCCACAGCAGAAGCGUUCACGUCGCGGCCCCUGUCAGAUUCUGGUGAACCUGCGAAUUCUGCUGUAUAUCUC [U1A A35G U58C] has a self-cleavage of 1.04.
In the case of AAACAGGGGGCCACGGCAGAAGCGUCCACGUCGCAGCACCUGUCAGAUUCUGGUGAGGCUGCGAAUUCAGCUGUAUAUCUC [U1A A15G U26C C38A A57G U58G U69A], the self-cleavage is reported as 0.07.
Work on AAACAGGGGGCCACCGCAGAAGCGUUCACGUCGCAGCCCCUGUCAGGUUCUGGUGAUUCCGCGAAUUCUGCUGUUUAUCUC [U1A A15C A47G A57U U60C A75U] yielded a self-cleavage of 0.09.
AAACAGGGGGCCACGGCAGAAGCGUUCACGUCGCAGCCCCUGCCAGAUUCUGGUGAAUCUGCGGAUUCUGCUGUAUAUCUC [U1A A15G U43C A64G] gave a self-cleavage of 0.25.
With AAACAGGGGGCCACGGCAGAAGCGUUCACGUCGCGGCCCCGGUCAGAUUCUGGAGAAUCUGCGAAUCCUGCUGUAUAUCCC [U1A A15G A35G U41G U54A U67C U80C] the self-cleavage was 0.14.
For AAACAGGGGGCCACAGCAGAAGCGUUCACGUCGCGGCCCCUGUCAGAUUCUGGUGAAUCUGCGAAUCCUGCUGUAUAUCUC [U1A A35G U67C], the self-cleavage was 0.78.
Variant AAACAGGGGGCCACAGCUGAAGCGUACACGUCGCAGCCCCUGUCAGAUUCUGGUGAAUCUGCGGAUUCUGCUGUAUAUCUC [U1A A18U U26A A64G] has a self-cleavage of 0.14.
AAACAGGGGGCCACAGCUGAACCGCUCACGUCGCAGCCCCUGUCAGAUUCUGGUGAAUCUGCAAAUUCUGCUGUAUAUCUC [U1A A18U G22C U25C G63A] gave a self-cleavage of 0.07.
With AAACAGGGGGCCACCGCAGAAGCGUUCACGUCGCAGCCCCCGUCAGAUUCUGGUGAAUCUGCGAAUCCUGCUGUAUAUCUC [U1A A15C U41C U67C] the self-cleavage was 0.29.
In the case of AAACAGGGGGCCACUGCAGAAGCGUUCACGUCGCAGCCCCUGCCAGAUUCUGGUGAAUCUGCGAAUUCUGCUGCGUAUCUC [U1A A15U U43C U74C A75G], the self-cleavage is reported as 0.81.
For AAACAGGGGGCCACAGCAGAGGCGUUCACGUCGCAGCCCCUGUCAGAUUCUGGUGAAUCUGCGAAUUCAGCUGUAUAUCUC [U1A A21G U69A], the self-cleavage was 0.39.
AAACAGGGGGCCACAGCAGAGGCGAUCACGUUGCAGCCCAUGUCAUAUUCUGGUGAAUCUGCGAAUUCUGCUGUAUAUCUC [U1A A21G U25A C32U C40A G46U] gave a self-cleavage of 0.06.
Variant AAACAGGGGGCCACAGCAGAAGCGUUCUCGUCGCAGCCCCUGCCAGAUUCUUGUGAUUCUGCGAAUUCUGCCGUAUAUCUC [U1A A28U U43C G52U A57U U72C] has a self-cleavage of 0.16.
For AAACAGGGGGCCACGGCAGGAGCGUUCACGUCGCGGCCCCUGUCAGAUUCUGGUGAAUCUGCGAAUUCUGCUGUUUAUCUC [U1A A15G A20G A35G A75U], the self-cleavage was 0.67.
For AAACAGGGGGCCACGGCAGAAGCGUCCACGUCGCAGCCCCUGUCAGAUUCUGGUGAAUCUGCGAAUUCAGCUGUAUAUCUC [U1A A15G U26C U69A], the self-cleavage was 0.18.
In the case of AAACAGGGGGCCACAGCAGGAGCGUUCACGUCGCAGCCCCUGUCAGACUCUGGUGAAUCCGCGUAUUCUGCUGUAUAUCUC [U1A A20G U48C U60C A64U], the self-cleavage is reported as 0.11.
Variant AAACAGGGGGCCACAGCAGAAGCGUUCACGUCGCGGCCCCUGCCGGACCCGGGUGAAUCUGCGAAUUCUGCUGUAUAUCUC [U1A A35G U43C A45G U48C U49C U51G] has a self-cleavage of 0.38.
Work on AAACAGGGGGCCACAGCAGAGGCGUUCACGUCGCAGCCCCUGACAGACUCUGGUGAAUCUGCGAAUUCUGCUGUAUAUCCC [U1A A21G U43A U48C U80C] yielded a self-cleavage of 0.32.
With AAACAGGGGGCCACGGCAGAAGCGUUCACGUCGCAGCCCCUGUCGGAUUCUGGUGAGUCUGCGAAUUCUGCUGUAUACCCC [U1A A15G A45G A57G U78C U80C] the self-cleavage was 0.58.
Work on AAACAGGGGGCCACUGCAGAAGCGUUCACGUCGCAGCCCCUGUCAGAUUCUGGUGAAACUGCGAAUUCUGCUGUAUAUCUC [U1A A15U U58A] yielded a self-cleavage of 0.24.
In the case of AAACAGGGGGCCUCAGCAGAAGCGUUCACGUCGCAGCCCCUGUCAGAUUCUGGUGAAUCCGCGAAUUCUGCUGUAGAUCCC [U1A A13U U60C U76G U80C], the self-cleavage is reported as 0.6.
Variant AAACAGGGGGCCACGGCGGAAGCGUUCACGUCGCAGCCCCUGUCAGAUUCUGUUGAAUCUGCGAAUUCUGCUGUAUAUCUC [U1A A15G A18G G53U] has a self-cleavage of 0.12.
For AAACAGGGGGCCACAGCGGAAGCGUUCACGUCGCAGCCCCUGUCAGAUCCUGGUGAACCUGCGAAUUCUGCUGUAUAUCUC [U1A A18G U49C U58C], the self-cleavage was 0.11.
In the case of AAACAGGGGGCCUCAGCAGAAGCGUUCACGUCGCAGCCCCUGUCAGAUUCUGGCGAAUCUGCGAAUUCCGCUGUAUAUCUC [U1A A13U U54C U69C], the self-cleavage is reported as 0.48.
For AAACAGGGGGCCACAGCAGGAGCGUUCACGACGCAGCCCCUGCCAGAUUCUGGCGAAUCUGCGAAUUCUGCCGUAUAUCUC [U1A A20G U31A U43C U54C U72C], the self-cleavage was 0.08.
Variant AAACAGGGGGCCUCAGCAGAAGCGAUCACGUCGCAGCCCCUGUCAGUUUCGGGUGAAUCUGCGAAUUCUGCUGUAUAUCUC [U1A A13U U25A A47U U51G] has a self-cleavage of 0.09.
AAACAGGGGGCCACAGCUGAAGCGUUCACGUCGCGGCCCCCGUCAGAUCCUGGUGAAUCUGCGAAUUCUGCUGUAUAUCUC [U1A A18U A35G U41C U49C] showed a self-cleavage of 0.35.
